Results on 53 molecules are retold here after ChEMBL document CHEMBL4888484, “Replenishing the malaria drug discovery pipeline: Screening and hit evaluation of the MMV Hit Generation Library 1 (HGL1) against asexual blood stage Plasmodium falciparum ,using a nano luciferase reporter read-out” (2022).

In all, about 150,000 compounds went through this assay and about 540 (0.36%) showed an effect of 50% or more. Some of the results follow.

The test relates to Plasmodium falciparum. In words: Primary screen in NF54 nanoGlo assay, in single point, at 2uM, 72h; a lower Z score goes with more inhibition. As to conditions: timepoint 72 hour. In kind it is functional, Erythrocyte.
In the case of `Cc1noc(C)c1CC(=O)N1CC[C@H](Oc2cncc(N(C)C)n2)C1`, the “% Inhibition” value amounted to 2% and the Z score is -0.27.

In the case of `O=C1CC[C@H](NC(=O)c2coc(C3CCCC3)n2)C(=O)N1`, the “% Inhibition” value is listed as 9% and the Z score was -1.04.

With `C[C@H](NC(=O)Nc1ccnn1C)C1CCOCC1`, the “% Inhibition” value was -2% and the Z score is reported as 0.25.

For `O=C(N[C@H]1Cc2ccc(Cl)cc2C1)c1cc(-n2ccnc2)ccn1`, the “% Inhibition” value is -4% and the Z score is on record as 0.51.

`CC(COc1ccc(F)c(F)c1)N[C@@H]1C=C[C@H](CO)C1` (stereo partly specified): the “% Inhibition” value is on record as -10% and the Z score is recorded as 1.22.

Take `CC[C@@H](C(=O)O)N1CCN(C2CCCC2)CC1`: the “% Inhibition” value is -7% and the Z score worked out at 0.9.

Take `COc1ccc2oc(C)c(-c3nc(C4CC4)no3)c2c1`: the “% Inhibition” value is -5% and the Z score was determined as 0.59.

On to `COc1ncccc1C(=O)OCc1nnc(C2CC2)o1`, for which the “% Inhibition” value is -11% and the Z score came to 1.09.

Take `O=C([C@@H]1CCCO1)N1CCc2ccc(F)c(Br)c2C1`: the “% Inhibition” value is recorded as -1% and the Z score was 0.15.

Consider `CCc1nnc(-c2ccc(=O)n(CC(=O)N3CCN(c4ccccc4F)CC3)c2)o1`, for which the “% Inhibition” value is recorded as -2% and the Z score is on record as 0.41.

For the molecule `c1cncc(-c2n[nH]c(CCn3cc(-c4ncc[nH]4)nn3)n2)c1`, the “% Inhibition” value is reported as -2% and the Z score came to 0.44.

As to `O=C(CNC(=O)c1ccncc1)Nc1ccc2[nH]c(=O)[nH]c2c1`, the “% Inhibition” value was -19% and the Z score was found to be 2.08.

With `COC1CCCCC1OC(=O)CN1CCC(C)CC1` (stereo unspecified), the “% Inhibition” value is reported as -6% and the Z score was found to be 1.15.

Consider `CCCCCN(Cc1nc(C2CC2)n[nH]1)C(C)C`, for which the “% Inhibition” value worked out at 2% and the Z score is -0.19.

As for `Cc1cn2nc(C(=O)NCC(C)(C)C3CCCCC3)cc2c(=O)[nH]1`, the “% Inhibition” value is reported as 1% and the Z score is on record as -0.11.

For `O=C(NCc1ccc(F)cc1)[C@@]1(CCO)CCN(c2ncccn2)C1`, the “% Inhibition” value was -13% and the Z score is recorded as 2.37.

Regarding `CCCc1nc(NCc2cc(O)ncn2)c2cnn(C)c2n1`, the “% Inhibition” value is -11% and the Z score is listed as 1.87.

On to `O=C(Nc1nc2c(s1)CCCC2)c1ccncc1`, for which the “% Inhibition” value was -1% and the Z score came out at 0.16.

Take `COCCCN1C(=O)c2ccc(C(=O)Nc3c(-c4ccccc4)nc4c(C)cccn34)cc2C1=O`: the “% Inhibition” value is -14% and the Z score amounted to 1.68.

Regarding `Cc1ccc(O[C@H]2CCOC[C@H]2NC(=O)c2ocnc2C)cn1`, the “% Inhibition” value was -8% and the Z score amounted to 1.51.

Take `Cc1cc(C(=O)N2CCOC[C@@H](CO)C2)sc1-c1ccccc1`: the “% Inhibition” value is recorded as -9% and the Z score was 1.2.

With `Cc1ccc(-c2cc(C(F)(F)F)c3c(-c4ccccc4)nn(Cc4ccccc4)c3n2)cc1`, the “% Inhibition” value is listed as 3% and the Z score is -0.35.

With `C[C@@H](c1ccc(-c2ncc(C(=O)O)s2)cc1)N1CCOCC1`, the “% Inhibition” value is -3% and the Z score amounted to 0.41.

With `COCCCN(Cc1c(-c2ccccc2)noc1N(C)C1CCCCC1)C(=O)c1cccc(OC)c1`, the “% Inhibition” value turned out to be 3% and the Z score is -0.36.

With `COc1ccccc1C1C(C(=O)Nc2ccccc2)=C(C)NC(C)=C1C(=O)Nc1ccccc1`, the “% Inhibition” value was -11% and the Z score was determined as 1.57.

`CC(C)C(=O)NCc1ccc(-c2ncnn2Cc2ccc(F)cc2)cc1`: the “% Inhibition” value worked out at 1% and the Z score is on record as -0.13.

In the case of `Cc1ccc(C)c(CN2CCC(N3CCC[C@H](C(=O)NCc4ccccn4)C3)CC2)c1`, the “% Inhibition” value is given as 5% and the Z score is on record as -0.71.

With `OCCc1ccccc1-n1ccnc1-c1nc2ccccc2[nH]1`, the “% Inhibition” value is -15% and the Z score came out at 1.28.

For `Cc1nc(C)c(CC(=O)NCCc2nncn2C(C)C)s1`, the “% Inhibition” value is -10% and the Z score turned out to be 0.97.

With `N#Cc1ccncc1C(=O)N1CC2C3CCC(C3)C2C1` (stereo unspecified), the “% Inhibition” value is recorded as 25% and the Z score is -2.88.

Consider `CCOCCC(=O)N1CC[C@]23C(=O)N(CC(=O)N(C)CCCOc4cccc(c4)[C@H]12)c1ccccc13`, for which the “% Inhibition” value was -1% and the Z score is 0.13.

Consider `CC(C)(C)c1ccc(C(C)(C)C)c(NC(=O)N[C@H]2CS(=O)(=O)C[C@@H]2O)c1`, for which the “% Inhibition” value was found to be 11% and the Z score is listed as -1.54.

Regarding `Cc1nn(C)c(C)c1OCCCS(C)(=O)=O`, the “% Inhibition” value is reported as -2% and the Z score is listed as 0.21.

For the molecule `Cc1ccnc(-c2noc([C@@H]3CCC(C)(C)O3)n2)n1`, the “% Inhibition” value is -6% and the Z score came out at 1.17.

Regarding `COc1cc(Br)c(F)cc1S(=O)(=O)N(C)c1cccc2cccnc12`, the “% Inhibition” value is -5% and the Z score worked out at 0.84.

Take `Cc1nnc(N(C)C(=O)CNC(=O)C(C)(C)C)s1`: the “% Inhibition” value stood at 8% and the Z score is recorded as -1.03.

Turning to `C[C@@H]1CN(C[C@@H]2CN(C(=O)c3ccc(F)cc3F)C[C@@H]2CO)C[C@H](C)O1`, the “% Inhibition” value was -6% and the Z score stood at 0.63.

Consider `CCc1nnc(CNC(=O)C(C)(C)N2CCCC2)s1`, for which the “% Inhibition” value is -6% and the Z score is listed as 0.6.

For the molecule `Cc1ccc(CC(=O)N2CCc3[nH]nc(C(=O)N4CCOCC4)c3C2)cc1`, the “% Inhibition” value is -6% and the Z score came out at 1.02.

`COc1ccc(CNc2cc(C)c(NC(C)=O)c(C)c2)s1`: the “% Inhibition” value is on record as -3% and the Z score came to 0.43.

On to `Cc1c(C2CCN(S(C)(=O)=O)CC2)c2ccccc2n1Cc1ccc(Cl)cc1`, for which the “% Inhibition” value is recorded as -5% and the Z score was found to be 0.65.

Consider `COc1c(F)ccc(CN2CCN3CCC[C@H]3C2)c1F`, for which the “% Inhibition” value is given as -14% and the Z score came out at 1.81.

With `O[C@H](COc1ccccc1-c1ccc2c(c1)OCO2)CN1CCOCC1`, the “% Inhibition” value was -1% and the Z score amounted to 0.12.

Regarding `CN1CCN(C(=O)c2ccc(C#CC(C)(C)O)o2)[C@H]2CS(=O)(=O)C[C@H]21`, the “% Inhibition” value was found to be 2% and the Z score is -0.42.

On to `O=C(N[C@@]1(C(F)(F)F)CCOC1)c1cccc(-n2ccnn2)c1`, for which the “% Inhibition” value is listed as -3% and the Z score is reported as 0.3.

As for `COCn1cncc1[C@@H](Cc1ccccc1)C(=N)NO`, the “% Inhibition” value is reported as 0% and the Z score amounted to 0.02.

For `CN(C[C@]1(O)CCc2ccccc21)C(=O)c1ccnn1CC(F)F`, the “% Inhibition” value worked out at 0% and the Z score turned out to be 0.02.

`Cc1nccn1C[C@H]1CCc2c(c3ccccc3n2C)C1=O` [(R)-ONDANSETRON]: the “% Inhibition” value was -1% and the Z score is given as 0.1.

With `Cc1nc(C)n(C2CN(C(=O)Nc3ccccc3C(F)(F)F)C2)n1`, the “% Inhibition” value is reported as -11% and the Z score turned out to be 1.16.

On to `O=C(c1cc(-c2ccc(Cl)cc2)nc2ccc(Br)cc12)N1CCN(C(=O)[C@@H]2CCCO2)CC1`, for which the “% Inhibition” value is given as -10% and the Z score turned out to be 1.21.

For the molecule `O=C(Nc1cnc2ccccc2c1)[C@@H]1CCCO1`, the “% Inhibition” value is 4% and the Z score is listed as -0.57.

Consider `CCOc1ccc(-c2cn(C3CN(C(=O)[C@H]4CCOC4)C3)nn2)cc1`, for which the “% Inhibition” value is given as -8% and the Z score was determined as 0.73.

`Cc1c(C(=O)N(C)C)sc2c1c(=O)n(-c1ccc(Cl)c(Cl)c1)c(=O)n2CC(=O)N1CCCC[C@@H]1C`: the “% Inhibition” value is given as -9% and the Z score was found to be 1.06.
